“And” between values parts separate entries of the source, which are not always exact repeats. Equal values may be shown once.
Columns and labels:
[1] = test system: human tumor tissue and normal tissue adjacent to tumor tissue (NAT); test: Anti-CTLA4 ELISA cleavage analysis with human tumor tissue and NAT (CHTN); format: in vitro ADME
Experimental: Anti-CTLA4 ELISA analyses were performed using human tumor tissue and normal tissue adjacent to tumor tissue (NAT) obtained from the Cooperative Human Tissue Network (CHTN). The antibodies tested include Antibody 2-14, Antibody 2-16, and Antibody 1334. […] The percentage of molecule cleaved by the tumor is slightly higher for Antibody 2-16 (26%) than Antibody 2-14 (22%). The overall percentage of molecule cleaved by the NAT is higher for Antibody 2-14 (24%) than Antibody 2-16 (7%).

[2] = test system: healthy monkey (cynomolgus) tissues and plasma; test: Ex vivo cleavage in healthy monkey tissues and plasma, CTLA4 ELISA; format: in vitro ADME
Experimental: In another study, ex vivo cleavage of healthy monkey (cynomolgus) tissues (N=2) and plasma (N=3) was assessed using a CTLA4 ELISA assay. Tissues tested included kidney, spleen, liver, bladder, skin, colon, and lung.

[3] = In vivo cleavage in plasma of healthy cynomolgus monkeys, CE and MS
Experimental: In another study, in vivo cleavage was assessed in the plasma of healthy cynomolgus monkeys at 1 hour, 1 day, and 7 days after administration. Cleavage was identified by capillary electrophoresis (CE) and by mass spectrometry (MS). The abundance of cleavage products at expected cleavage site within Antibody 2-14 (VPLS**LY) was calculated. Cleavage at another site (VPLSLY**SGG) was also calculated for comparison. The abundance of cleavage for Antibody 2-16 was also calculated.

[4] = biological target: T1, interaction of CTLA4 with its ligands, CD80 and CD86 (Homo sapiens, UniProt P16410); test: CTLA4 blockade bioassay; format: cell-based
T1 construct: expressed in transfected cells; host or cells: CTLA4 expressing Jurkat cells; CD80/CD86 expressing Raji cells
Experimental: The ability of anti-CTLA4 antibodies, including masked anti-CTLA4 antibodies, to block the interaction of CTLA4 with its ligands, CD80 and CD86, was tested using a CTLA4 blockade bioassay. Antibodies were diluted in pre-warmed complete medium. CTLA4 expressing Jurkat cells (effector cells) were thawed and transferred to a conical tube containing complete medium. The cells were mixed and counted. Cells were added to each well of a 96 well plate (Corning, #3917). Diluted antibodies were added to the appropriate wells and tested in duplicate. The plate was gently mixed and incubated at 37° C. for 15 minutes. APC cells (CD80/CD86 expressing Raji cells) were thawed and transferred to a conical tube containing complete medium. The cells were gently mixed, counted, and immediately dispensed to each well and mixed gently. The plate was covered and kept at 37° C. for 6 hours. Bio-Glo reagent was gently mixed by inversion and the bottle was kept at room temperature. After six hours of incubation the assay plate was removed from the incubator and kept at room temperature for ten minutes. Bio-Glo reagent was added to the wells and the plate was incubated at room temperature for five-fifteen minutes. The plate was then read with a luminometer and analyzed using GraphPad Prism. Statistical analysis of fold changes in the ability to block binding was performed using one-way ANOVA comparisons. […]

[5] = test system: human conditioned media from human tumors (colon tumors, lung tumors)
[6] = test system: peripheral blood mononuclear cells (PBMCs); format: cell-based, human; conditions: non-activated (without exposure to protease); compared to isotype control
[7] = Total, NAT (samples cleaved/samples)
[8] = Total, Tumor (samples cleaved/samples)

T1 sequence (P16410 36-223): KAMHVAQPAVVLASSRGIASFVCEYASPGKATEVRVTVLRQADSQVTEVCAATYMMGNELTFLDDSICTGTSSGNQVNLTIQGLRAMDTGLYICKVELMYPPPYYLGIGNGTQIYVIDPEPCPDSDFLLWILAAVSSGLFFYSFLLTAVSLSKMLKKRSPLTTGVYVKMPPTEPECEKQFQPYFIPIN

B1: Antibody 2-14: masked Antibody 2-6: mask CPGKGLPSC, cleavable peptide VPLSLY; SEQ ID NO: 358 and 421 (protein)
light: ACPGKGLPSCGGGSSGGSGVPLSLYSGGEIVLTQSPDFQSVTPKEKVTITCSANSALSYMYWYQQKPDQSPKLWVHGTSNLASGVPSRFSGSGSGTDFTLTINSLEAEDAATYYCHHWSNTQWTFGGGTKVEIKRTVAAPSVFIFPPSDEQLKSGTASVVCLLNNFYPREAKVQWKVDNALQSGNSQESVTEQDSKDSTYSLSSTLTLSKADYEKHKVYACEVTHQGLSSPVTKSFNRGEC
heavy: QVQLVQSGAEVKKPGSSVKVSCKASGYTFTNYFMNWVRQAPGQGLEWMGRVDPEQGRADYAEKFKKRVTITADKSTSTAYMELSSLRSEDTAVYYCARRAMDNYGFAYWGQGTLVTVSS[human IgG1 constant region with changes left out here]
Frequency of cleavage ([1]; Bladder, NAT): 3/3 | Percent (%) of cleavage ([1]; Bladder, NAT): 56% | Frequency of cleavage ([1]; Bladder, Tumor): 4/5 | Percent (%) of cleavage ([1]; Bladder, Tumor): 7% | Frequency of cleavage ([1]; Breast, NAT): 3/4 | Percent (%) of cleavage ([1]; Breast, NAT): 64% | Frequency of cleavage ([1]; Breast, Tumor): 3/4 | Percent (%) of cleavage ([1]; Breast, Tumor): 37% | Frequency of cleavage ([1]; Colon, NAT): 8/8 | Percent (%) of cleavage ([1]; Colon, NAT): 34% | Frequency of cleavage ([1]; Colon, Tumor): 7/7 | Percent (%) of cleavage ([1]; Colon, Tumor): 46% | Frequency of cleavage ([1]; Liver, NAT): 4/5 | Percent (%) of cleavage ([1]; Liver, NAT): 28% | Frequency of cleavage ([1]; Liver, Tumor): 3/6 | Percent (%) of cleavage ([1]; Liver, Tumor): 2% | Frequency of cleavage ([1]; Lung, NAT): 5/6 | Percent (%) of cleavage ([1]; Lung, NAT): 3% | Frequency of cleavage ([1]; Lung, Tumor): 4/7 | Percent (%) of cleavage ([1]; Lung, Tumor): 4% | Frequency of cleavage ([1]; Lymph node, Tumor): 1/1 | Percent (%) of cleavage ([1]; Lymph node, Tumor): 2% | Frequency of cleavage ([1]; Melanoma, NAT): 1/1 | Percent (%) of cleavage ([1]; Melanoma, NAT): 100% | Frequency of cleavage ([1]; Melanoma, Tumor): 3/3 | Frequency of cleavage ([1]; Ovary, NAT): 1/1 | Percent (%) of cleavage ([1]; Ovary, NAT): 4% | Frequency of cleavage ([1]; Ovary, Tumor): 4/9 | Percent (%) of cleavage ([1]; Ovary, Tumor): 5% | Frequency of cleavage ([1]; Renal cell, NAT): 19/25 | Frequency of cleavage ([1]; Renal cell, Tumor): 15/26 | Percent (%) of cleavage ([1]; Renal cell, Tumor): 25% | Frequency of cleavage, as percent ([1]; Total, NAT): 83% | Percent (%) of cleavage ([1]; Total, NAT): 24% | Frequency of cleavage [1, 7]: 44/53 | Frequency of cleavage, as percent ([1]; Total, Tumor): 65% | Percent (%) of cleavage ([1]; Total, Tumor): 22% | Frequency of cleavage [1, 8]: 44/68 | percentage of cleavage ([2]; cyno bladder): 37% | percentage of cleavage ([2]; cyno colon): 36% | percentage of cleavage ([2]; cyno lung): 88% | percentage of cleavage ([2]; cyno plasma): 4% | abundance of cleavage product VPLS**LY ([3]; 1 hour): 0% | abundance of cleavage product VPLSLY**SGG ([3]; 1 hour): 0% | abundance of the intact (uncleaved) antibody ([3]; 1 hour): 100% | cleavage by capillary electrophoresis (CE) ([3]; 1 hour, all three subjects): 0% | cleavage by mass spectrometry (MS) ([3]; 1 hour, subject #3): 0% | abundance of cleavage product VPLS**LY ([3]; 24 hours): 17% | abundance of cleavage product VPLSLY**SGG ([3]; 24 hours): 1% | abundance of the intact (uncleaved) antibody ([3]; 24 hours): 82.1% | abundance of cleavage product VPLS**LY ([3]; 72 hours): 32.3% | abundance of cleavage product VPLSLY**SGG ([3]; 72 hours): 0% | abundance of the intact (uncleaved) antibody ([3]; 72 hours): 67.7% | cleavage by capillary electrophoresis (CE) ([3]; day 1, subjects #1, #3, #5): 8% and 6% and 4% | cleavage by mass spectrometry (MS) ([3]; day 7, subject #3): 32.3% | cleavage by capillary electrophoresis (CE) ([3]; day 7, subjects #1, #3, #5): 35% and 32% and 31% | ability to block the binding of CTLA4 to its ligands ([4]; activated form (prior exposure to protease)): demonstrated an ability to effectively block | ability to block the binding of CTLA4 to its ligands ([4]; non-activated form (absence of protease)): did not demonstrate an ability to effectively block

B2: Antibody 2-10: masked Antibody 2-6: mask CPFPALELC, non-cleavable peptide GSGGSG; SEQ ID NO: 427 and 421; negative control (protein)
light: ACPFPALELCGGGSSGGSGGSGGSGSGGEIVLTQSPDFQSVTPKEKVTITCSANSALSYMYWYQQKPDQSPKLWVHGTSNLASGVPSRFSGSGSGTDFTLTINSLEAEDAATYYCHHWSNTQWTFGGGTKVEIKRTVAAPSVFIFPPSDEQLKSGTASVVCLLNNFYPREAKVQWKVDNALQSGNSQESVTEQDSKDSTYSLSSTLTLSKADYEKHKVYACEVTHQGLSSPVTKSFNRGEC
heavy: QVQLVQSGAEVKKPGSSVKVSCKASGYTFTNYFMNWVRQAPGQGLEWMGRVDPEQGRADYAEKFKKRVTITADKSTSTAYMELSSLRSEDTAVYYCARRAMDNYGFAYWGQGTLVTVSS[human IgG1 constant region with changes left out here]
percentage (%) of cleavage / molecules cleaved, ELISA [5]: 4% | IL-2 production [6]: did not promote a significant increase in IL-2 production

B3: Antibody 2-16: masked Antibody 2-6: mask CPFPALELC, cleavable peptide DSGGFMLT; SEQ ID NO: 422 and 421 (protein)
light: ACPFPALELCSSGGSGPDSGGFMLTSGGEIVLTQSPDFQSVTPKEKVTITCSANSALSYMYWYQQKPDQSPKLWVHGTSNLASGVPSRFSGSGSGTDFTLTINSLEAEDAATYYCHHWSNTQWTFGGGTKVEIKRTVAAPSVFIFPPSDEQLKSGTASVVCLLNNFYPREAKVQWKVDNALQSGNSQESVTEQDSKDSTYSLSSTLTLSKADYEKHKVYACEVTHQGLSSPVTKSFNRGEC
heavy: QVQLVQSGAEVKKPGSSVKVSCKASGYTFTNYFMNWVRQAPGQGLEWMGRVDPEQGRADYAEKFKKRVTITADKSTSTAYMELSSLRSEDTAVYYCARRAMDNYGFAYWGQGTLVTVSS[human IgG1 constant region with changes left out here]
Frequency of cleavage ([1]; Bladder, NAT): 0/3 | Percent (%) of cleavage ([1]; Bladder, NAT): 0% | Frequency of cleavage ([1]; Bladder, Tumor): 0/5 | Percent (%) of cleavage ([1]; Bladder, Tumor): 0% | Frequency of cleavage ([1]; Breast, NAT): 1/4 | Percent (%) of cleavage ([1]; Breast, NAT): 5% | Frequency of cleavage ([1]; Breast, Tumor): 1/4 | Frequency of cleavage ([1]; Colon, NAT): 3/8 | Percent (%) of cleavage ([1]; Colon, NAT): 3% | Frequency of cleavage ([1]; Colon, Tumor): 5/7 | Percent (%) of cleavage ([1]; Colon, Tumor): 50% | Frequency of cleavage ([1]; Liver, NAT): 1/5 | Percent (%) of cleavage ([1]; Liver, NAT): 71% | Frequency of cleavage ([1]; Liver, Tumor): 1/6 | Percent (%) of cleavage ([1]; Liver, Tumor): 2% | Frequency of cleavage ([1]; Lung, NAT): 1/6 | Percent (%) of cleavage ([1]; Lung, NAT): 2% | Frequency of cleavage ([1]; Lung, Tumor): 1/7 | Percent (%) of cleavage ([1]; Lung, Tumor): 21% | Frequency of cleavage ([1]; Lymph node, Tumor): 0/1 | Percent (%) of cleavage ([1]; Lymph node, Tumor): 0% | Frequency of cleavage ([1]; Melanoma, NAT): 1/1 | Percent (%) of cleavage ([1]; Melanoma, NAT): 9% | Frequency of cleavage ([1]; Melanoma, Tumor): 1/3 | Percent (%) of cleavage ([1]; Melanoma, Tumor): 1% | Frequency of cleavage ([1]; Ovary, NAT): 0/1 | Percent (%) of cleavage ([1]; Ovary, NAT): 0% | Frequency of cleavage ([1]; Ovary, Tumor): 2/9 | Percent (%) of cleavage ([1]; Ovary, Tumor): 5% | Frequency of cleavage ([1]; Renal cell, NAT): 9/25 | Percent (%) of cleavage ([1]; Renal cell, NAT): 2% | Frequency of cleavage ([1]; Renal cell, Tumor): 4/26 | Percent (%) of cleavage ([1]; Renal cell, Tumor): 26% | Frequency of cleavage, as percent ([1]; Total, NAT): 30% | Percent (%) of cleavage ([1]; Total, NAT): 7% | Frequency of cleavage [1, 7]: 16/53 | Frequency of cleavage, as percent ([1]; Total, Tumor): 22% | Percent (%) of cleavage ([1]; Total, Tumor): 26% | Frequency of cleavage [1, 8]: 15/68 | percentage of cleavage ([2]; cyno lung): 30% | percentage of cleavage ([2]; cyno plasma): absence of cleavage detected | percentage of cleavage ([2]; cyno spleen): 15% | cleavage using CE or MS [3]: no cleavage was identified | abundance of the intact (uncleaved) antibody ([3]; 1 hour): 100% | abundance of the intact (uncleaved) antibody ([3]; 24 hours): 100% | abundance of the intact (uncleaved) antibody ([3]; 72 hours): 100%
